Results reported in the supplement of paper PMC10126150.
Values marked as one replicate rest on one cluster of the flow cell; about a third of the high ones do not repeat.

System: ATP
Assay: switch fluorescence ratio, 500 uM ATP over buffer (Cy3 cluster intensity, sum of 5 cycles each) (fold (ratio)); higher = stronger signal-on switching upon ATP binding; sequences stand for … in TCGTCGGCAGCGTCAGATGTGTATAAGAGACAGTTTTTTTTTTTTTTTTTTTTTTTTT…TC
Conditions: aptamer strand: ATP DNA aptamer (quencher-CACCTGGGGGAGTATTGCGGAGGAAGG + anchor), 100 nM annealed; ATP concentration: 500 uM; one replicate
Summary of the method: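 Imaging in selection buffer was followed by imaging after 15 min with 500 uM ATP at 22 °C, for Cy3-labelled switching-strand clusters annealed to 100 nM quencher-labelled ATP aptamer on a modified Illumina MiSeq flow-cell. Five of these buffer/ATP cycles ran, separated by NaOH stripping and re-annealing. The fluorescence ratio per cluster is summed target-cycle over summed buffer-cycle Cy3 intensity, averaged per switch-domain sequence; clusters outside 100-1000 RFU were removed.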
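Further: ATP exposure 15 min at 22 °C before imaging.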

Row | Sequence | switch fluorescence ratio
1 | GCGCCCTTTG | 1.04
2 | AATCGATCGA | 1.07
3 | TGGCAGAGTG | 1
4 | CCTATGATCT | 1
5 | TGTGTTAACA | 0.976
6 | TTGATTCTTG | 1.03
7 | CATTTGCATC | 1.23
8 | AGTGTGGCA | 1.01
9 | ATGGTTTGTC | 0.965
10 | AAGATTATTC | 1
11 | TGTCCATGGT | 1.02
12 | CCGAATTTGG | 1.07
13 | TTTGATTCCT | 1.15
14 | GGACGAAAG | 0.96
15 | CCCGGTTACG | 0.974
16 | GCGAGGTGTC | 1
17 | GGCGCGGGCA | 0.996
18 | ATCGAATGGT | 0.97
19 | GTTTCGGTGT | 0.991
20 | CCGATTAAGT | 1.02
21 | ACTTCGACAT | 1.32
22 | TCCGGCGAGA | 1.43
23 | TCATTTGACT | 0.998
24 | GTATGGGACT | 0.961
25 | TATCTTTTAG | 0.992
26 | TGATTATAGT | 1.03

Row | Sequence | switch fluorescence ratio
27 | AACTTTAAGA | 1.01
28 | CACTCCGAGT | 1.36
29 | CGTGAACTTT | 1.03
30 | CTTATAAGGA | 1.01
31 | GAGGTTCGGA | 1.01
32 | CTTAAAATA | 1.01
33 | TTTGTATAAG | 0.989
34 | ACCTTCTAAT | 1.14
35 | ACTTTCAAAC | 1.09
36 | TCTCGTGTTA | 1.04
37 | CAGTCTTTTC | 0.932
38 | ATGTTCTTGG | 1.01
39 | GCGAGTGTTC | 1.05
40 | TGCTATTTTC | 1.07
41 | TTTGAGCCCG | 0.964
42 | CTAGGGACTG | 1.05
43 | TCGTTAGCGA | 1.02
44 | TTCTTAGAGG | 1
45 | TAATGGGGA | 1.02
46 | GATTCACTGG | 0.998
47 | CGGAGATCTA | 0.998
48 | TAGTGGAGCC | 1.02
49 | TCAACAAGAT | 1.61
50 | CGATAGTTCG | 0.953
51 | AACATTACCA | 1.15
52 | TAGCGTGACA | 1.03

Row | Sequence | switch fluorescence ratio
53 | TACATGTGAT | 0.945
54 | GCAATGGCCG | 0.971
55 | TGTTTAGGCT | 0.957
56 | TTAGGTCAGC | 0.944
57 | GAACGGACAG | 1.34
58 | AGTGCAATT | 1.04
59 | AGACGGTATA | 1.11
60 | CGGGTTCAAT | 0.99
61 | TTCTAGGATA | 0.984
62 | TACTCCTTCT | 1.1
63 | TATAATGAAT | 0.999
64 | TTAACAACA | 1.05
65 | AGTTCGAGCG | 0.978
66 | TGATACGCGC | 1.08
67 | ACTTATGGCC | 1.02
68 | CGCTGGCGGT | 0.966
69 | CGACGAGATT | 1.25
70 | GGAGGTCGTA | 1.06
71 | CAGCGCTATT | 0.983
72 | CAGAGCTGAT | 1.03
73 | GGATTAGAAG | 1.03
74 | CGGGTCAGGG | 1
75 | TCTAATAGCA | 1.01
76 | TTCTCAAACG | 1
77 | AAGAGGGCAA | 1.1
78 | GGGTGTCGGG | 0.991

Row | Sequence | switch fluorescence ratio
79 | GGGCCCGTCA | 1
80 | AGGTTATATA | 1.02
81 | ATTATGTCA | 1.03
82 | GCGAGTGGAA | 1
83 | GGAAAAGCAA | 1.23
84 | AAACTGTTGG | 0.963
85 | TTCCTAAACG | 1.06
86 | GGTGAGGAAC | 0.997
87 | TAATTAAAGA | 0.984
88 | TGGAGGCGCT | 0.976
89 | ATATCTGCGG | 1.03
90 | CGTGGCTTTC | 1
91 | GAGTTATGAG | 0.955
92 | GCGTCGGTTG | 0.966
93 | CAATACATT | 1.01
94 | CAAGTGCGCG | 0.972
95 | CATATCCGCT | 1.11
96 | ATAACGGTGT | 1.03
97 | TAGCCGTACA | 0.963
98 | AATAGAGGGT | 1.01
99 | TTGAGCTCAA | 1.02
100 | GCTCCACATT | 2.05
101 | GTCACTGTTT | 0.974
102 | GGGATGGTTG | 1.02
103 | TACTCAGAG | 1
104 | ATTATTGTCT | 0.949

Row | Sequence | switch fluorescence ratio
105 | TAGGCCTTGC | 1.06
106 | GCAAGTACAA | 1.33
107 | AGCAGTCGA | 1.18
108 | GCAGCGGCCG | 1.02
109 | CATTTGTGC | 0.983
110 | AGTTGTAGCT | 1.03
111 | AGTCTATGA | 1
112 | GTGTAGATTG | 1.03
113 | AGCAGCATTT | 0.992
114 | GTAGAGGGAG | 0.989
115 | ATACAGAATA | 1.06
116 | TGGCTATTCT | 1.03
117 | AGAATTATAG | 1
118 | CACCAGTGCG | 1.21
119 | GATGTACGTG | 0.99
120 | TGGCGTTGCG | 0.984
121 | ACCTGGGGGC | 1.02
122 | GACATGGAAA | 0.974
123 | GATTAGATGC | 1.03
124 | GAATGGTGAT | 0.958
125 | AAACCCTTCT | 1.09
126 | CAGCCAGCCG | 1.01
127 | GCAACTTACG | 1.39
128 | TGTAAATTCG | 1.02
129 | TTGTCGTTCA | 1.02
130 | ACCGAGCGGA | 1.12

Row | Sequence | switch fluorescence ratio
131 | ACCGTTGTCA | 0.982
132 | CAGAGGCATG | 1.07
133 | CACAGGTCTC | 1.05
134 | GAGGTGTTGT | 1
135 | GCCGACTGC | 1.06
136 | TTAGAAACAA | 1
137 | AGGATAAGCG | 1.01
138 | CGCACTACGG | 3.64
139 | GATGAGCGTA | 1.03
140 | TGAATGGTGC | 1.08
141 | TAATTCAATA | 1.07
142 | TTCTTTGGG | 0.974
143 | TCAGCTGAAG | 1.04
144 | CCATGCCTTT | 0.997
145 | CTTCTGGGGG | 1.01
146 | GTGCATAGTA | 1.03
147 | ATTGCTAC | 1.08
148 | CGTACGAAAG | 1.04
149 | ATAACGGATT | 0.96
150 | TTTGTAACAA | 1
151 | CATCGGTAGT | 1.03
152 | GACTAAGCGA | 1.66
153 | TCAAATAATT | 1.04
154 | CTCTCCCACG | 1.63
155 | GCTCCAGGCT | 1.06
156 | CGCGATAGGT | 1.28

Row | Sequence | switch fluorescence ratio
157 | ATTGTCTAT | 1.01
158 | TGGTTTGACT | 0.958
159 | TAAGCCGGTC | 1.08
160 | AACGGATTGC | 1.04
161 | CGTTGCGCTT | 1.05
162 | GGTGCTAGGT | 0.976
163 | CAGCATTATA | 1.12
164 | CAATGCAGAG | 1
165 | ATTGGCCCTT | 0.958
166 | TACAGGTCTG | 0.951
167 | TTACACGGTT | 1.05
168 | GCACCGGGGT | 0.958
169 | GTTCGTTTCC | 1.01
170 | GTCCAATTTT | 1.01
171 | AGTATCTTAT | 0.969
172 | GCGTAGGCTG | 0.95
173 | ATAGTATACT | 1.02
174 | TTCGGCTGGC | 0.957
175 | CGTGCGTCTC | 1.02
176 | TACCTCTCTA | 1.01
177 | CCGTGCGATG | 2.69
178 | TAAAAACATG | 1.07
179 | TACAGCGACT | 1.1
180 | GCCAGGTTGT | 1.5
181 | GCAGGGTA | 0.977
182 | AGGACATCCG | 0.965

Row | Sequence | switch fluorescence ratio
183 | ACCACTTCCT | 1.55
184 | GCTGTTACCG | 0.969
185 | GGTAACCTAG | 1.01
186 | AAGTGTCTGT | 1.03
187 | AGCCTGGATC | 1.02
188 | GTTACTTTGC | 1
189 | AACAGGGACG | 0.993
190 | TTCTCGAGGG | 1.04
191 | CTGGGTCTCC | 1.01
192 | GGGGCTTTGC | 0.937
193 | AGGATCCGGG | 1.01
194 | TTCCAGATGT | 1.05
195 | GGCGAGGCGG | 0.98
196 | GCCCGCTGTA | 1.13
197 | GCGAACTGAT | 0.994
198 | TGTCCGTCTA | 1.01
199 | CTTAGTACG | 1.01
200 | GGGCCCTGTG | 1.01
201 | CGCTTGTTG | 1.03
